# Experimental data: PubChem BioAssay (Tox21)
# Inconclusive results, whose numbers are uncertain, are shown with a selection of clear calls. For some assays here: Potencies of inconclusive entries are doubtful fits and often do not repeat. Active and inactive are the calls of the source. Unless noted, the call rests on the fitted dose curve; in most records, active means well fitted curve in the direction sought with a large enough effect in the repeat runs; inconclusive means weak or mixed curves; inactive means no such curve, though single readings can be large; an effect the other way counts as inactive or inconclusive.
# Assays:
# [1] = qHTS assay for small molecule agonists of the p53 signaling pathway (AID 651631; calls by dose curve; further: potency means the concentration at half of the fitted maximal effect; nearly all actives have a fitted effect of over 15% in size); settings: HCT-116 p53RE-bla reporter, beta-lactamase FRET ratio, 16 h; activation: at 73.3 µM (top of the series) unless noted
# Summary of the method: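 Testing took place in human colorectal HCT-116 cells with stable p53RE-driven beta-lactamase. After 16 h of compound exposure at 37 °C, a FRET substrate was added and fluorescence recorded 2 h later.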
# [2] = qHTS assay for small molecules that induce genotoxicity in human embryonic kidney cells expressing luciferase-tagged ATAD5 (AID 651632); further: potency means the concentration at half of the fitted maximal effect; nearly all actives have a fitted effect of over 15% in size
# Summary of the method: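 Increased luciferase signal from ATAD5-tagged reporter cells indicates DNA-damage-driven ATAD5 induction. HEK293T cells are treated for 16 hr at 37C before detection with Amplite.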
# [3] = qHTS assay for small molecule disruptors of the mitochondrial membrane potential - cell viability (AID 720634; calls by dose curve; further: potency means the concentration at half of the fitted maximal effect; nearly all actives have a fitted effect of over 20% in size)
# Summary of the method: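 After overnight attachment at 37 C, HepG2 cells received compound or DMSO vehicle for 1 hr. Viability is then taken from ATP-driven luminescence following a 30 min room-temperature CellTiter-Glo step.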
# [4] = qHTS assay for small molecule disruptors of the mitochondrial membrane potential (AID 720635); settings: HepG2 mitochondrial membrane potential, Mito-MPS dye ratio; further: potency means the concentration at half of the fitted maximal effect; on ratio activity, negative = MMP loss: on the % scale 0 is the no-effect control and ±100 the full control effect
# Summary of the method: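 HepG2 cells (2,000/well) attached overnight at 37C, then took compound for 1 hr at 37C, 5% CO2. Mito-MPS dye was added for 30 min; fluorescence was read at 490/535 nm (monomers) and 540/590 nm (aggregates).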
# [5] = biological target: Glucocorticoid receptor (Homo sapiens) (UniProt P04150); experiment: qHTS assay to identify small molecule antagonists of the glucocorticoid receptor (GR) signaling pathway (AID 720692; active means well fitted inhibition curve with a large enough effect in the signal ratio in the repeat runs, not every such curve was filed as active; inconclusive means weak or mixed curves, or effect the other way; inactive means no such curve, though single readings can be large or run the other way; the % refers to the signal ratio; further: on the % scale 0 is the no-effect control and ±100 the full control effect); settings: GR-bla HeLa, beta-lactamase FRET ratio, dexamethasone-stimulated, 18 h; activity change, negative = inhibition: at 58.5 µM (top of the series) unless noted
# Summary of the method: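 Cells plated, rested 4 h at 37 C/5% CO2; compounds in DMSO pin-transferred; dexamethasone added to 5 nM final; 18 h at 37 C; B/G FRET substrate added, 2 h room temperature; fluorescence measured.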
# [6] = qHTS assay for identifying genotoxic compounds that show differential cytotoxicity against isogenic chicken DT40 cell lines with known DNA damage response pathways - Rad54/Ku70 mutant cell line (AID 743015); settings: DT40 Rad54/Ku70 mutant viability, CellTiter-Glo, 40 h; activity change, negative = cytotoxicity: at 66.8 µM (top of the series) unless noted; further: potency means the concentration at half of the fitted maximal effect; nearly all actives have a fitted effect of over 60% in size
# [7] = biological target: Androgen receptor (Homo sapiens) (UniProt P10275); experiment: qHTS assay to identify small molecule antagonists of the androgen receptor (AR) signaling pathway (AID 743035; active means well fitted inhibition curve with a large enough effect in the signal ratio in the repeat runs, not every such curve was filed as active; inconclusive means weak or mixed curves, or effect the other way; inactive means no such curve, though single readings can be large or run the other way; the % refers to the signal ratio; further: on the % scale 0 is the no-effect control and ±100 the full control effect); settings: HEK293 AR-UAS-bla, R1881-stimulated, beta-lactamase FRET, 16 h; activity change, negative = inhibition: at 58.5 µM (top of the series) unless noted
# Summary of the method: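 Antagonism is scored as loss of R1881-driven beta-lactamase reporter expression in HEK293 cells carrying the reporter under a UAS element, after 16 h co-treatment at 37C and a 2 h room-temperature FRET substrate read.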
# [8] = biological target: Androgen receptor (Homo sapiens) (UniProt P10275); experiment: qHTS assay to identify small molecule agonists of the androgen receptor (AR) signaling pathway (AID 743036; active means well fitted activation curve with a large enough effect in the signal ratio in the repeat runs, with a control signal flat, not every such curve was filed as active; inconclusive means weak or mixed curves, or effect the other way; inactive means no such curve, though single readings can be large or run the other way; the % refers to the signal ratio; further: potency means the concentration at half of the fitted maximal effect); settings: HEK293 AR-UAS-bla GripTite, beta-lactamase FRET ratio, 16 h; activation: at 62.4 µM (top of the series) unless noted
# Summary of the method: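 Screening used 2,000 AR-bla HEK293 cells per well, treated 16 h at 37C with test compounds in DMSO alongside positive and DMSO-only controls; beta-lactamase activity was then read by LiveBLAzer B/G FRET fluorescence after 2 h at room temperature.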
# [9] = qHTS assay to identify small molecule antagonists of the thyroid receptor (TR) signaling pathway (AID 743065); further: nearly all actives have a fitted effect of over 55% in size; further: potency means the concentration at half of the fitted maximal effect
# Summary of the method: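 GH3.TRE-Luc rat pituitary cells carrying two TR response elements driving luciferase were plated for 4 h, given compound plus 1 nM T3 (final), and incubated 23.5 h at 37 C. ONE-Glo luminescence measured reporter inhibition; CellTiter-Fluor fluorescence tracked cytotoxicity.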
# [10] = system: thyroid hormone receptor (rat, GH3 cells); experiment: qHTS assay to identify small molecule agonists of the thyroid receptor (TR) signaling pathway (AID 743066; calls by dose curve; further: on the % scale 0 is the no-effect control and ±100 the full control effect); settings: GH3.TRE-Luc cells, TR agonist luciferase, 24 h; activation: at 83.9 µM (top of the series) unless noted
# [11] = biological target: Estrogen receptor (Homo sapiens) (UniProt P03372); experiment: qHTS assay to identify small molecule antagonists of the estrogen receptor alpha (ER-alpha) signaling pathway (AID 743069; active means well fitted curve in the direction sought with a large enough effect in the signal ratio in the repeat runs, not every such curve was filed as active; inconclusive means weak or mixed curves, or effect the other way; inactive means no such curve, though single readings can be large or run the other way; the % refers to the signal ratio; further: potency means the concentration at half of the fitted maximal effect); settings: HEK293 ER-alpha-UAS-bla, beta-lactamase ratio, antagonist mode; activity, negative = inhibition: at 69.4 µM (top of the series) unless noted
# Summary of the method: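 HEK293 cells stably carrying an ER-alpha-UAS-bla beta-lactamase reporter were pre-cultured overnight in 2% charcoal-stripped FBS medium. Test compounds in DMSO were added together with 17beta-estradiol for 18 hr at 37C. Read-out was fluorescence after 2 hr with LiveBLAzer B/G FRET substrate at room temperature.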
# [12] = biological target: Estrogen receptor (Homo sapiens) (UniProt P03372); experiment: qHTS assay to identify small molecule agonists of the estrogen receptor alpha (ER-alpha) signaling pathway (AID 743075; calls by dose curve; further: potency means the concentration at half of the fitted maximal effect); settings: HEK293 ER-alpha-UAS-bla, beta-lactamase FRET ratio, 18 h; activation: at 70.1 µM (top of the series)
# [13] = qHTS assay to identify small molecule antagonists of the estrogen receptor alpha (ER-alpha) signaling pathway using the BG1 cell line (AID 743080; calls by dose curve;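 further: BG1 cells stimulated with 17beta-estradiol alongside compound; potency means the concentration at half of the fitted maximal effect; nearly all actives have a fitted effect of over 25% in size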); settings: BG1Luc4E2 ERE-luciferase antagonist mode, luminescence; activity change, negative = inhibition: at 70.3 µM (top of the series) unless noted
# Summary of the method: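 Luciferase inhibition measured with ONE-Glo after 30 min at RT in BG1Luc4E2 cells given test compounds and 17beta-estradiol for 21.5 h at 37 C; CellTiter-Fluor viability read in the same wells beforehand.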
# [14] = qHTS assay to identify aromatase inhibitors - cell viability counter screen (AID 743084); settings: MCF-7 aro ERE viability, CellTiter-Fluor, 24 h; activity change, negative = cytotoxicity: at 70.3 µM (top of the series) unless noted;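 further: cells stimulated with testosterone during compound exposure; potency means the concentration at half of the fitted maximal effect; nearly all actives have a fitted effect of over 55% in size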
# [15] = biological target: Aryl hydrocarbon receptor (Homo sapiens) (UniProt P35869); experiment: qHTS assay to identify small molecule that activate the aryl hydrocarbon receptor (AhR) signaling pathway (AID 743085); further: potency means the concentration at half of the fitted maximal effect; nearly all actives have a fitted effect of over 15% in size
# Summary of the method: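 A multiplexed format paired cell viability (CellTiter-Fluor fluorescence) with AhR-dependent luciferase output (ONE-Glo luminescence) in the same wells of HepG2 DRE-luc cells after 24 h compound exposure at 37C.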
# [16] = qHTS assay to identify small molecule that activate the aryl hydrocarbon receptor (AhR) signaling pathway - cell viability counter screen (AID 743086); further: potency means the concentration at half of the fitted maximal effect; nearly all actives have a fitted effect of over 45% in size
# Summary of the method: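 HepG2-AhR-luc (HG2L7.5c1) cells, 4000/well, were preincubated 5 h at 37C, exposed to compound in qHTS format for 24 hr at 37C, then given CellTiter-Fluor for 30 min; viability was read as fluorescence in the reporter wells.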
# [17] = biological target: Nuclear receptor subfamily 1 group I member 2 (Rattus norvegicus) (UniProt Q9R1A7); experiment: Rat pregnane X receptor (rPXR) activation by small molecules, qHTS assay (AID 1346983); settings: rPXR luciferase reporter cells, One-Glo luminescence, 24 h; max activation: stronger effect = higher value; further: potency means the concentration at half of the fitted maximal effect; nearly all actives have a fitted effect of over 20% in size
# Summary of the method: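 Cell-based rPXR luciferase reporter assay, 2,000 cells per well, rested 5hr at 37 C before compound addition in DMSO, then 24 hr at 37 C. One-Glo reagent was added and luminescence read after 30 min at room temperature.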
# [18] = biological target: Peroxisome proliferator-activated receptor gamma (Homo sapiens) (UniProt P37231); experiment: qHTS assay to identify small molecule agonists of the peroxisome proliferator-activated receptor gamma (PPARg) signaling pathway (AID 743094; active means well fitted activation curve with a large enough effect in the signal ratio in the repeat runs, not every such curve was filed as active; inconclusive means weak or mixed curves, or effect the other way; inactive means no such curve, though single readings can be large or run the other way; the % refers to the signal ratio; further: potency means the concentration at half of the fitted maximal effect); settings: HEK293H PPARg-UAS-bla, beta-lactamase FRET ratio, 17 h; activation: at 57 µM (top of the series) unless noted
# Summary of the method: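 Quantitative HTS agonist mode: stable HEK293H line with UAS-beta-lactamase reporter under PPARg control, 17 h compound exposure at 37C, fluorescence after 1 h FRET substrate loading at room temperature.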
# [19] = biological target: Glucocorticoid receptor (Homo sapiens) (UniProt P04150); experiment: qHTS assay to identify small molecule agonists of the glucocorticoid receptor (GR) signaling pathway (AID 720691; active means well fitted activation curve with a large enough effect in the signal ratio in the repeat runs, not every such curve was filed as active; inconclusive means weak or mixed curves, or effect the other way; inactive means no such curve, though single readings can be large or run the other way; the % refers to the signal ratio; further: potency means the concentration at half of the fitted maximal effect); settings: GR-bla HeLa, beta-lactamase reporter ratio, 18 h; activation: at 62.4 µM (top of the series) unless noted
# Summary of the method: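 Agonist mode in a HeLa line carrying a GRE-controlled beta-lactamase reporter. Compounds act for 18 h at 37 C before a 2 h room-temperature FRET substrate step and fluorescence reading.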
# [20] = qHTS assay to identify small molecule antagonists of the androgen receptor (AR) signaling pathway using the MDA cell line - cell viability counter screen (AID 743041; further: potency means the concentration at half of the fitted maximal effect; nearly all actives have a fitted effect of over 45% in size); settings: MDA-kb2 viability, CellTiter-Fluor, 16 h, cells co-treated with R1881 androgen agonist; viability change, negative = cytotoxic: at 70.3 µM (top of the series)
# Summary of the method: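 MDA-kb2 AR-luc human breast carcinoma cells (MMTV-luciferase, AR/GR responsive) were treated with compounds plus R1881 agonist for 16 h at 37 °C. Viability was read as CellTiter-Fluor fluorescence in the same wells as the reporter assay.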
# [21] = biological target: Estrogen receptor (Homo sapiens) (UniProt P03372); experiment: qHTS assay to identify small molecule agonists of the estrogen receptor alpha (ER-alpha) signaling pathway using the BG1 cell line (AID 743079); settings: BG1Luc4E2 cells, ERE-luciferase agonist, 22 h; activation: at 70.3 µM (top of the series) unless noted; further: potency means the concentration at half of the fitted maximal effect; nearly all actives have a fitted effect of over 20% in size
# [22] = biological target: Nuclear receptor subfamily 1 group I member 2 (Homo sapiens) (UniProt O75469); experiment: CYP3A4 induction through human pregnane X receptor (PXR) by small molecules, qHTS assay (AID 1346984); settings: DPX-2 HepG2 PXR, CYP3A4-luciferin luminescence, 24 h; activation: at 46.1 µM (top of the series) unless noted; further: potency means the concentration at half of the fitted maximal effect; nearly all actives have a fitted effect of over 40% in size
# Summary of the method: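 Steps: seed DPX-2 cells, 5 hr at 37C; pin-transfer compounds; 24 hr at 37C; add Luciferin-IPA (3uM final), 3 hr at 37C; add One-Glo, 30 min RT; read luminescence.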
# [23] = biological target: Nuclear receptor subfamily 1 group I member 2 (Homo sapiens) (UniProt O75469); experiment: Human pregnane X receptor (PXR) activation by small molecules, qHTS assay (AID 1346985); further: potency means the concentration at half of the fitted maximal effect; nearly all actives have a fitted effect of over 40% in size
# Summary of the method: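 DPX-2 cells (HepG2 co-transfected with a PXR response element and a CYP3A4-promoter luciferase construct) were seeded at 2,000 per well, rested 5 hr at 37C, then exposed to DMSO-dissolved compounds for 24 hr. Activation was read as luciferase luminescence.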
# [24] = ratio activity, negative = MMP loss: at 83.2 µM (top of the series) unless noted
# Tags describe the fitted curve by direction and shape or compound fluorescence and quenching.
# Sequence of UniProt P03372 (P03372 whole entry, looked up): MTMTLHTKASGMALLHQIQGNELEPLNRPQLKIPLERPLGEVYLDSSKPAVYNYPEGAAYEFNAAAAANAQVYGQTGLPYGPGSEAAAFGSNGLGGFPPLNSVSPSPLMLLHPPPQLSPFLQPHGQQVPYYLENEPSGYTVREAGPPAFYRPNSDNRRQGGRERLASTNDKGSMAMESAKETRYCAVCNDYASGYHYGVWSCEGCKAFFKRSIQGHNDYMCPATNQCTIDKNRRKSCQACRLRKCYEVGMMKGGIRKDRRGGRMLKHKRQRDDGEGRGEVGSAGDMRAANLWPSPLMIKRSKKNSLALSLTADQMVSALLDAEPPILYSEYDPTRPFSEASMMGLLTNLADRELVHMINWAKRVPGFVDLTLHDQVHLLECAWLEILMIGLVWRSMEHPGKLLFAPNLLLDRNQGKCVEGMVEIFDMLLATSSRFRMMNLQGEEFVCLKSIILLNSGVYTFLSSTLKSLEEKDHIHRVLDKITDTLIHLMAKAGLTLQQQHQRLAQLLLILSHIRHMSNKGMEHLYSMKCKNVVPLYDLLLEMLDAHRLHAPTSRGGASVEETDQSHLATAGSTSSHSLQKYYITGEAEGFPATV
# Sequence of UniProt P04150 (P04150 whole entry, looked up): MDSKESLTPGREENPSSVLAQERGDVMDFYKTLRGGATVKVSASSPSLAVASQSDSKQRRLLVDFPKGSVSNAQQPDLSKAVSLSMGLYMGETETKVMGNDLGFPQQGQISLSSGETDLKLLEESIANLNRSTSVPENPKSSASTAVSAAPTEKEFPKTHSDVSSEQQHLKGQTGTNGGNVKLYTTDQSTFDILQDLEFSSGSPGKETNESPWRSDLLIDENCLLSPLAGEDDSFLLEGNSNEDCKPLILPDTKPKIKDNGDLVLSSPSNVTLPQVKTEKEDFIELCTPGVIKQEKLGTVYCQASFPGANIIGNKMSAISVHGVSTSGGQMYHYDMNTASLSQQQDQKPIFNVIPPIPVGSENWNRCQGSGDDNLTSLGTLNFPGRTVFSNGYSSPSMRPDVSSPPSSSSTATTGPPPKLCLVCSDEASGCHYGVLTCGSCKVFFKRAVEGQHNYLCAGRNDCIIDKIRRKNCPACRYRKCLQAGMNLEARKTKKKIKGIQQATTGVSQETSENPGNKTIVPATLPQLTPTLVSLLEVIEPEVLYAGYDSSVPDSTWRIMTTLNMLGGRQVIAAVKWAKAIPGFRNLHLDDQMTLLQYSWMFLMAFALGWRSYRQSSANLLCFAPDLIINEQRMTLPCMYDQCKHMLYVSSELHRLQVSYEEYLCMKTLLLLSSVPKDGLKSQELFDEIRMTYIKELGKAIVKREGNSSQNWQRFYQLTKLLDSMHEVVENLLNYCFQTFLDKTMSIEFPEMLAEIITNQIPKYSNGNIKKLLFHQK
# Sequence of UniProt P37231 (P37231 whole entry, looked up): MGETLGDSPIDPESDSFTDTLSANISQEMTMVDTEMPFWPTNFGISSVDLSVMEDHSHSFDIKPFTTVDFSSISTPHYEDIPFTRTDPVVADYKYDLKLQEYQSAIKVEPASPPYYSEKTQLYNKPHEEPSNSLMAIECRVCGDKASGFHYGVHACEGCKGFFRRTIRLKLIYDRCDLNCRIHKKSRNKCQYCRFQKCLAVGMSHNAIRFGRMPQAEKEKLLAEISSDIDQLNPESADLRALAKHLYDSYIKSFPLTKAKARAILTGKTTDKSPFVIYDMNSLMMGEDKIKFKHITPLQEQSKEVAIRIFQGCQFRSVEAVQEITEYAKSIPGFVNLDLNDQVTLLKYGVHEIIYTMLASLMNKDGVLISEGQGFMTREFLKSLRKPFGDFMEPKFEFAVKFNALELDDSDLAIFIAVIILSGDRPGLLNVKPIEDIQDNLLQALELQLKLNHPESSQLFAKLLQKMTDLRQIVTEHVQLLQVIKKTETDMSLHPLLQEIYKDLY
# Sequence of UniProt Q9R1A7 (Q9R1A7 whole entry, looked up): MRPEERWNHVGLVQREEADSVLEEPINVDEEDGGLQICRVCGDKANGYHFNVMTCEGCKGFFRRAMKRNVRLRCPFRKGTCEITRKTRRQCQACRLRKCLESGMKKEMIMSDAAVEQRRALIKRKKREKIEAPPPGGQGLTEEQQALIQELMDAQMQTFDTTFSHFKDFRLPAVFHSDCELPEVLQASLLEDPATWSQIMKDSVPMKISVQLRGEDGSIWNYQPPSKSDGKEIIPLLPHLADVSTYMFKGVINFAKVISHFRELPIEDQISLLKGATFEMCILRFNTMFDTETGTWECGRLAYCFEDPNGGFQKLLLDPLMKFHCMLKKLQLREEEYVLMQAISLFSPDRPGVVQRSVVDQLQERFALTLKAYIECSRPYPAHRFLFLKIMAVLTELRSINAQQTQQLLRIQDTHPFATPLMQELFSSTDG
# Sequence of UniProt P10275 (P10275 whole entry, looked up): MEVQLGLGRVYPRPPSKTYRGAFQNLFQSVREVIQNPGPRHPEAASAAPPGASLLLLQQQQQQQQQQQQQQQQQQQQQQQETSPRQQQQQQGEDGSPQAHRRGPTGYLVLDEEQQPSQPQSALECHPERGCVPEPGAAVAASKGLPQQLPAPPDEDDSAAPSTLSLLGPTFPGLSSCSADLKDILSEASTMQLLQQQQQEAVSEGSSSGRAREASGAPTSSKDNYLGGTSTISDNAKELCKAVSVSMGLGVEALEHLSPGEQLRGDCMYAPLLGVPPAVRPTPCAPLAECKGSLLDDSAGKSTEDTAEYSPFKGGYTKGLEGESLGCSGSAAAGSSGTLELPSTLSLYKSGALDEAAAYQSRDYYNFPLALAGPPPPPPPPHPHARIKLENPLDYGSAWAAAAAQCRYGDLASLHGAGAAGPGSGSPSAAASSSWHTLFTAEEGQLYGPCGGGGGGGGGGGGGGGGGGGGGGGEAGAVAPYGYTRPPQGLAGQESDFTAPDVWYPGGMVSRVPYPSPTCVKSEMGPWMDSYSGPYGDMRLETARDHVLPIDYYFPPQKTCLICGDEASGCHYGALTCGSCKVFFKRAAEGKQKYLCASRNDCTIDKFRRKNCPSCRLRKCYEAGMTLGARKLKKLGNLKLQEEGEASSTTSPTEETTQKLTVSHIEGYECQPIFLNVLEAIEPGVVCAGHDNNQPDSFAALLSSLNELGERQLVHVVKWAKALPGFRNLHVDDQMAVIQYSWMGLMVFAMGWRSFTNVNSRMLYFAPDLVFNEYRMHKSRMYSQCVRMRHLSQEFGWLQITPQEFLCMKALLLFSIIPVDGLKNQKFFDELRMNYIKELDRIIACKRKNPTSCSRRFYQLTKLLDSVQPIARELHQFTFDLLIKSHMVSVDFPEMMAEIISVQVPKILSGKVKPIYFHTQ
# Sequence of UniProt P35869 (P35869 whole entry, looked up): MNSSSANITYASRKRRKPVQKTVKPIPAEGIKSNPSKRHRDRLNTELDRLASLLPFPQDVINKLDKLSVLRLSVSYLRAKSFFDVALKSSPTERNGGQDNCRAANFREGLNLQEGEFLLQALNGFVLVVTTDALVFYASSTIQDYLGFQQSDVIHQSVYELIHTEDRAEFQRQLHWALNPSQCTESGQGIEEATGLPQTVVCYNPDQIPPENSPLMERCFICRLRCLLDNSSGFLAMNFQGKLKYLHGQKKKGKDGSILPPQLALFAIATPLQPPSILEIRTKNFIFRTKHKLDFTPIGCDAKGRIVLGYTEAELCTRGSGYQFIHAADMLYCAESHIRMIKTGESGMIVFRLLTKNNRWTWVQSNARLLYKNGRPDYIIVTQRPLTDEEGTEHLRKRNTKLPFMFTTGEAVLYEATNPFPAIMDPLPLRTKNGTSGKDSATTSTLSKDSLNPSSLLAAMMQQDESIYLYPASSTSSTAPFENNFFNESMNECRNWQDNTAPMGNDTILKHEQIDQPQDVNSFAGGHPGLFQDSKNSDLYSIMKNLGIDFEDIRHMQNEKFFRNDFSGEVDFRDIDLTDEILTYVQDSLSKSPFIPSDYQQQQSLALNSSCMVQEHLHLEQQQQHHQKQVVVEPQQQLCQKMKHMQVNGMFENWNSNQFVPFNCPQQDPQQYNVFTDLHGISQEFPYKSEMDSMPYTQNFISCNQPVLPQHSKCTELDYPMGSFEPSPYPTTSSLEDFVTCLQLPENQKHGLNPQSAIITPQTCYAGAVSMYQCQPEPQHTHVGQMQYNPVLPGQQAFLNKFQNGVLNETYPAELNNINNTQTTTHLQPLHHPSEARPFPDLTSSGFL
smiles,measurement,setting,value
O=C1/C(=C\c2cccs2)CCC/C1=C\c1cccs1,Potency,[1],"inconclusive: 1.19 µM [activator, single point]"
same,Potency,[2],active: 5.96 µM
same,Potency,[3],"inconclusive: 29.8 µM [cytotoxic, partial curve, poor fit]"
same,Potency,[4]; [24],active: 21.1 µM
same,"activity change, negative = inhibition",[5],inconclusive: -33.2%
same,Potency,[6],active: 29.8 µM
same,"activity change, negative = inhibition",[7],inconclusive: -10.6%
same,Potency,[8],"inconclusive: 3.79 µM [rising, partial curve, poor fit]"
same,Potency,[9],"inconclusive: 33.5 µM [inhibitor, single point]"
same,Potency,[10],inactive
same,Potency,[11],"inconclusive: 1.07 µM [activator, full curve, poor fit]"
same,Potency,[12],inconclusive: 9.52 µM [fluorescent]
same,Potency,[13],"inconclusive: 13.3 µM [rising, partial curve]"
same,Potency,[14],"inconclusive: 33.5 µM [cytotoxic, single point]"
same,Potency,[15],active: 23.7 µM
same,Potency,[16],active: 11.9 µM
same,Potency,[17],active: 7.08 µM
C=CCN1C(=O)C(CC(C)C)NC1=S (stereo not given),"ratio activity, negative = MMP loss",[4]; at 83.2 µM (top of the series),inactive: 11.8%
same,"ratio activity, negative = MMP loss",[4]; [24],inconclusive: -8.65%
same,Potency,[9],inactive
same,Potency,[12],inactive
same,Potency,[18],inactive
same,Potency,[17],"inconclusive: 39.8 µM [activator, single point]"
S=C1SCN(Cc2ccccc2)CN1Cc1ccccc1,Potency,[1],"inconclusive: 0.596 µM [activator, single point]"
same,Potency,[4]; [24],"inconclusive: 11.9 µM [inhibitor, partial curve]"
same,Potency,[19],"inconclusive: 2.68 µM [rising, single point]"
same,"activity change, negative = inhibition",[5],inconclusive: -5.66%
same,Potency,[20],"inconclusive: 31.2 µM [cytotoxic, single point]"
same,activation,[10],inconclusive: -9.05% [phenotype inactive]
same,Potency,[12],inactive
same,Potency,[21],active: 26.6 µM
same,Potency,[13],"inconclusive: 21.1 µM [rising, partial curve]"
same,Potency,[18],inconclusive: 13.4 µM [activator]
same,Potency,[22],"inconclusive: 15.8 µM [activator, partial curve, poor fit]"
same,Potency,[23],active: 14.1 µM
